In PubChem BioAssay AID1508624 (National Center for Advancing Translational Sciences (NCATS), 2021):
Hit rate of the full screen: of about 48,000 compounds, about 120 (0.25%) were called active. Roughly 4% stayed inconclusive and do not appear here. Calls come from the whole dose curve; as a rule, active = well fitted activation curve with a large enough effect; inconclusive = small, poorly fitted or top-dose-only effect, or another doubt; inactive = no such curve, though single readings can be large or run the other way. The list shows a part of the results.

Assay: Primary qHTS for Identification of Small Molecule Activators of Huntingtin-Antisense Promoter Activity; note: nearly all actives have a fitted effect of over 55% in size
Details: HEK293 HTT-AS promoter firefly luciferase reporter, 24 h; series mostly up to 57.5 µM; activity change, positive = activation: at the top concentration
Method in brief: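 HEK293 cells carrying firefly luciferase reporters were seeded at 2,500 per well in Opti-MEM and cultured for 24 h. They were then treated with compounds at up to 57.5 uM final for 24 h at 37 degrees C before Dual-Glo luminescence readout.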

Activity change, positive = activation, inactive:
CCOC(=O)C1CCC(CN(Cc2ccc(OC)cc2)S(=O)(=O)c2ccc(F)c(C(=O)Nc3cc(Cl)ccc3OC)c2)CC1 (stereo not given) -12.4%
COc1ccc(CNC(=O)CN(C)S(=O)(=O)c2ccc3[nH]c4c(c3c2)CCCC4)cc1 -31.9%
Cn1cc(-c2cc3n(n2)CCC(=O)N3CCCC(=O)NCc2ccccc2)c2ccccc21 -23.4%
CC(C)c1ccc(NC(=O)c2cc(S(=O)(=O)NCCC3=CCCCC3)ccc2F)cc1 -34.9%
CCN(CC)CCNC(=O)Cn1cnc2sc(C)c(S(=O)(=O)N3CCC(C)CC3)c2c1=O 3.97%
COc1ccc(NC(=O)Cc2ccc(NC(=O)N3CCCCc4ccccc43)cc2)c(OC)c1 -24%
Cc1cn2c(=O)cc(COC(=O)c3ccc(NC(=O)c4ccc(C(C)(C)C)cc4)cc3)nc2s1 -21.8%
COc1ccc(C2=Nc3ccccc3N(CC(=O)Nc3cccc(C(C)=O)c3)C(=O)C2)cc1 4.64%
COc1ccc(CNS(=O)(=O)c2csc(C(N)=O)c2)cc1OC 3.61%
CCOC(=O)c1ccc(NC(=O)C(CC)Sc2nncn3c2cc2oc(C)cc23)cc1 (stereo not given) -8.72%
CCCCNc1nc2c(-c3cccc(Br)c3)nnn2c2ccccc12 15.9%
COc1cccc2c1cc1c(=O)n(CC(=O)NCCCN3CCN(C)CC3)nc(C)n12 -8.55%
CCC1=C(c2ccc(C)cc2)S(=O)(=O)N=C1N1CCC(C(=O)NCCc2cccc(OC)c2)CC1 -31.2%
COc1ccc(OCCCn2c(C)nc3cc(C)c(C)cc32)cc1 -13.9%
Cn1nnnc1SCCCNCc1cc(Cl)ccc1OCc1ccccc1 -19.2%
O=C1Nc2c(c(=O)[nH]c(=O)n2-c2ccc(F)cc2)C1(NS(=O)(=O)c1ccc(Cl)cc1)C(F)(F)F (stereo not given) -10.1%
Cc1cccc(N2CCN(C(=O)c3c4c(nc5ccccc35)C(=O)N(C3CCCCC3)C4)CC2)c1C -13.5%
COc1ccc(OC)c(NC(=O)c2cc3c(=O)n4cccc(C)c4nc3n2C)c1 -5.18%
Cc1ccc(CC(=O)NCc2nc(-c3cccc(C)c3)no2)cc1 -11.9%
Cc1ccc(N(C)C(=O)c2noc3c2CCCCC3)cc1C -11.9%
Cc1cccc(C)c1OCc1cc(=O)n2ccsc2n1 -12.4%
COc1cc(OC)c(NC(=O)C(C)n2nc(-c3ccc(C)c(C)c3)ccc2=O)cc1Cl (stereo not given) -29.8%
COc1ccc(C(=O)Nc2ccc3c(c2)N(C)C(=O)c2ccccc2S3)cc1OC -42.1%
CCOC(=O)c1cnc2c(C)cc(C)cc2c1Nc1ccc(N2CCOCC2)cc1 6.91%
CCCOc1ccccc1C(=O)Nc1nc2c(s1)CCCC2 -25.9%
CN(Cc1ccccc1)C(=O)c1ccc2c(c1)N(Cc1ccc(Cl)cc1)C(=O)c1ccccc1S2=O (stereo not given) -34.8%
Cc1oc(-c2ccc(Cl)cc2)nc1CN1CCCC(C(=O)NCc2ccc(Cl)cc2)C1 (stereo not given) -6.75%
COc1cccc(NS(=O)(=O)c2ccc3[nH]cc(C(=O)N(C)Cc4ccco4)c(=O)c3c2)c1 -9.08%
Cc1nnc(N2CCC(C(=O)NCc3cccc(Cl)c3)CC2)c2nn(-c3ccccc3)c(C)c12 -37.1%
CCc1ccccc1N1CC(c2nc3ccccc3n2CCC2CCCCC2)CC1=O (stereo not given) -74.2%
Cn1c(=O)c2c(c3ccccc31)OC(=O)CC2c1ccccc1 (stereo not given) -9.61%
COc1ccc(NC(=O)c2ccc3c(=O)n4nc(Nc5ccccc5C)sc4nc3c2)cc1 -15.6%
O=c1c2ccccc2n2c(-c3cccc(F)c3)nnc2n1Cc1ccccc1 -18.7%
CC(C)c1ccc(NC(=O)CSC2=Nc3ccccc3C3=NC(CC(=O)NCc4ccco4)C(=O)N23)cc1 (stereo not given) -15.8%
CCOC(=O)N1CCN(C(=O)c2cnn(-c3cccc(C)c3)c2-n2cccc2)CC1 -15.6%
C1=CC2C3C=CC(C3)C2C1 (stereo not given) -1.17% [at 116 µM, percent change from vehicle, -100% = no light]
O=C1CC(=O)Nc2cc(S(=O)(=O)Nc3cccc(Br)c3)ccc2N1 -0.895%
COC(=O)c1cc2sc(Cl)cc2n1Cc1nc(-c2ccccc2F)oc1C -1.25%
Cc1ccc(CCNC(=O)c2ccc(CNS(=O)(=O)c3ccc(F)cc3)cc2)cc1 -5.44%
CCOC(=O)C1=C(CS(=O)(=O)c2ccc(F)c(C)c2)NC(=O)NC1c1ccc(F)c(F)c1 (stereo not given) -28.6%
CC(=O)N1CCc2c(sc(NC(=O)CSc3ccc(C)cc3)c2-c2nc3ccccc3s2)C1 -2.85%
Cc1cccc(N2CCN(C(=O)c3cccc(-n4c(C)nc5cccnc54)c3)CC2C)c1 (stereo not given) -32%
Cc1c(C(=O)Nc2ccccc2Cl)oc2ccc(S(=O)(=O)N3CCCCCC3)cc12 0%
Cc1cc(C)c2c(n1)SCC(=O)N2CC(=O)Nc1c(C)cccc1C -8.68%
Cc1cc(C)cc(NC(=O)Nc2c[nH]c(=O)[nH]c2=O)c1 -7.8%
O=C(NC1(C(F)(F)F)N=C(c2ccccc2)N(C2CCCCC2)C1=O)c1ccccc1F (stereo not given) -37%
COc1ccc(NS(=O)(=O)c2cc3c4c(c2)CC(=O)N4CCC3)cc1Cl -13.7%
COc1ccc(OC)c(CCNc2ncnc3onc(C)c23)c1 -71%
CCn1c(CN2CCC(C)CC2)nc2cc(NC(=O)c3cccc([N+](=O)[O-])c3)ccc21 -6.7%
O=C(Cn1c(=O)c2sccc2n(CC(=O)Nc2ccc(Cl)cc2Cl)c1=O)NCCc1ccccc1 -44.9%
Cc1ccc(NC(=O)N2CCc3c([nH]c4ccccc34)C2c2ccccc2F)c(Cl)c1 (stereo not given) -28.5%
CCCN1Cc2cccc(C(=O)Nc3ccc(OC)cc3OC)c2C1=O 0.991%
COc1cccc(C(=O)c2cn(CC(=O)Nc3cccc(Cl)c3C)c3nc(C)ccc3c2=O)c1 -8.22%
COCCN1C(=O)c2oc3ccc(C)cc3c(=O)c2C1c1ccc(C(=O)OC)cc1 (stereo not given) -0.81%
CSc1ncc(C(=O)NCc2cccc(Br)c2)c(-c2ccccc2)n1 -19.3%
COc1ccc(CNS(=O)(=O)c2ccc3c(c2)C(C)(C)C(=O)N3C)cc1OC -14.3%
Cc1ccc(C(C)C)c(OCC(=O)Nc2ccc(-c3nc4ncccc4o3)cc2C)c1 -9.34%
O=C(NCc1ccccc1F)C(=O)NCC(c1ccco1)S(=O)(=O)c1ccccc1 (stereo not given) -22.3%
Cc1ccc(C)c(NS(=O)(=O)c2ccc3c(c2)CCCN3C(=O)C2CCC2)c1 -35%
COc1ccc(C(C(=O)NCc2ccccc2)N(C(=O)Cn2nnc3ccccc32)c2ccc(OC)cc2)cc1 (stereo not given) -12.9%
